Reference: patent CN117138036A (NANJING RONGJIEKANG BIOTECHNOLOGY CO LTD, dated 2023)

How the values were obtained:
IL-4Rα = IL-4Rα (UniProt P24394 26-232, limits assumed); assay: cell-based or functional assay
IL-5 = IL-5 (human, UniProt P05113 20-134); assay: cell-based or functional assay
Chain of IL-5 (P05113 20-134 limits assumed): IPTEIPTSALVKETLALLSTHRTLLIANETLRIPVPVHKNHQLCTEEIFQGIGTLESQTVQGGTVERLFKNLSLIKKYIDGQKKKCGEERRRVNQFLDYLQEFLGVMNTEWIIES

EC50, 中和IL-13诱导的TF-1细胞增殖 (IL-4Rα): 0.215 nM | EC50, 中和IL-5诱导的TF-1细胞增殖 (IL-5): 0.175 nM
B1: 4E9V10-2B3V2-1 (bispecific antibody, human IgG4)
chain: QVQLVESGGGLVQPGGSLRLSCAASGDFYCMAWFRQAPGKEREAVAAIRSGGRSTYYADSVKGRFTISRDNSKNTLYLQMNSLKAEDTAVYYCAVGVDGNCRNYWGQGTLVTVSS[left out - human IgG4 Fc]ESKYGPPCPSCPQVQLVESGGGSVQAGGSLRLSCAASGNTFSFSTYCMGWFRQSPGKEREGSLATIYDASTAYAGSVKGRFTISRDNSKNILYLQMNNLRAEDTAVYYCAAARYCMFWSHPSYWGQGTQVTVSS
